# ± gives the standard deviation of the averaged measurements. Restriction of a single-cycle SIVsab GFP reporter by TRIM5α v1-loop variants in CRFK cells. Human variants: read share among cells still uninfected after two challenges over input, higher = gained restriction. Rhesus variants: share among infected cells over input, higher = lost restriction. Reporter dose not given per row. No active / inactive call per row; the paper calls a change when both replicates lie above its controls (mean + 2 SD of stop or wild-type variants, or the top frameshift score). Residues outside the varied loop are taken from Swiss-Prot. The paper reads the human single-substitution scores as noise; they and the rhesus combinations repeat poorly (rank correlation 0.3 to 0.4), indel scores repeat only for the top variants, rhesus substitutions well (0.9).
# Tested on: SIVsab (simian immunodeficiency virus of sabaeus monkeys), single-cycle GFP reporter, in CRFK cells
# Assay: enrichment among uninfected cells over input (fold); higher = stronger restriction
# Settings: library: human / rhesus combinations
# Procedure: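 Pools of CRFK cells expressing variants of the TRIM5α v1 loop were challenged with the single-cycle reporter, sorted by GFP and sequenced; mean of two replicates.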
row,Sequence,enrichment
1,"MASGILVNVKEEVTCPICLELLTQPLSLDCGHSFCQACLTANHKKSMLDKGESSCPVCRISYQPENIRPNRHVANIVEKLREVKLSPEGQKVDHCARHGEKLLLFCQEDGKVICWLCERSQEHRGHHTFLTEEVAREYQVKLQAALEMLRQKQQEAEELEADIREEKASWKTQIQYDKTNVLADFEQLRDILDWEESNELQNLEKEEEDILKSLTNSETEMVQQTQSLRELISDLEHRLQGSVMELLQGVDGVIKRTENVTLKKPETFPKNQRRVFRAPDLKGMLEVFRELTDVRRYWVDVTVAPNNISCAVISEDKRQVSSPKPQIIYQARGTRYTFQTFTNFNYCTGILGSQSITSGKHYWEVDVSKKTAWILGVCAGFQPDAMCNIEKNENYQPKYGYWVIGLEEGVKCSAFQDSSFHTPSVPFIVPLSVIICPDRVGVFLDYEACTVSFFNITNHGFLIYKFSHCSFSQPVFPYLNPRKCGVPMTLCSPSS [human TRIM5α, 330-340 = QARGTRYTFQTFT]",0.138 ± 0.038
2,"MASGILVNVKEEVTCPICLELLTQPLSLDCGHSFCQACLTANHKKSMLDKGESSCPVCRISYQPENIRPNRHVANIVEKLREVKLSPEGQKVDHCARHGEKLLLFCQEDGKVICWLCERSQEHRGHHTFLTEEVAREYQVKLQAALEMLRQKQQEAEELEADIREEKASWKTQIQYDKTNVLADFEQLRDILDWEESNELQNLEKEEEDILKSLTNSETEMVQQTQSLRELISDLEHRLQGSVMELLQGVDGVIKRTENVTLKKPETFPKNQRRVFRAPDLKGMLEVFRELTDVRRYWVDVTVAPNNISCAVISEDKRQVSSPKPQIIYQARGTRYTFQSFVNFNYCTGILGSQSITSGKHYWEVDVSKKTAWILGVCAGFQPDAMCNIEKNENYQPKYGYWVIGLEEGVKCSAFQDSSFHTPSVPFIVPLSVIICPDRVGVFLDYEACTVSFFNITNHGFLIYKFSHCSFSQPVFPYLNPRKCGVPMTLCSPSS [human TRIM5α, 330-340 = QARGTRYTFQSFV]",0.478 ± 0.036
3,"MASGILVNVKEEVTCPICLELLTQPLSLDCGHSFCQACLTANHKKSMLDKGESSCPVCRISYQPENIRPNRHVANIVEKLREVKLSPEGQKVDHCARHGEKLLLFCQEDGKVICWLCERSQEHRGHHTFLTEEVAREYQVKLQAALEMLRQKQQEAEELEADIREEKASWKTQIQYDKTNVLADFEQLRDILDWEESNELQNLEKEEEDILKSLTNSETEMVQQTQSLRELISDLEHRLQGSVMELLQGVDGVIKRTENVTLKKPETFPKNQRRVFRAPDLKGMLEVFRELTDVRRYWVDVTVAPNNISCAVISEDKRQVSSPKPQIIYQAPGTLYTFQTFVNFNYCTGILGSQSITSGKHYWEVDVSKKTAWILGVCAGFQPDAMCNIEKNENYQPKYGYWVIGLEEGVKCSAFQDSSFHTPSVPFIVPLSVIICPDRVGVFLDYEACTVSFFNITNHGFLIYKFSHCSFSQPVFPYLNPRKCGVPMTLCSPSS [human TRIM5α, 330-340 = QAPGTLYTFQTFV]",0.101 ± 0.073
4,"MASGILVNVKEEVTCPICLELLTQPLSLDCGHSFCQACLTANHKKSMLDKGESSCPVCRISYQPENIRPNRHVANIVEKLREVKLSPEGQKVDHCARHGEKLLLFCQEDGKVICWLCERSQEHRGHHTFLTEEVAREYQVKLQAALEMLRQKQQEAEELEADIREEKASWKTQIQYDKTNVLADFEQLRDILDWEESNELQNLEKEEEDILKSLTNSETEMVQQTQSLRELISDLEHRLQGSVMELLQGVDGVIKRTENVTLKKPETFPKNQRRVFRAPDLKGMLEVFRELTDVRRYWVDVTVAPNNISCAVISEDKRQVSSPKPQIIYGARGTLYTFQSLTNFNYCTGILGSQSITSGKHYWEVDVSKKTAWILGVCAGFQPDAMCNIEKNENYQPKYGYWVIGLEEGVKCSAFQDSSFHTPSVPFIVPLSVIICPDRVGVFLDYEACTVSFFNITNHGFLIYKFSHCSFSQPVFPYLNPRKCGVPMTLCSPSS [human TRIM5α, 330-340 = GARGTLYTFQSLT]",0.301 ± 0.2
5,"MASGILVNVKEEVTCPICLELLTQPLSLDCGHSFCQACLTANHKKSMLDKGESSCPVCRISYQPENIRPNRHVANIVEKLREVKLSPEGQKVDHCARHGEKLLLFCQEDGKVICWLCERSQEHRGHHTFLTEEVAREYQVKLQAALEMLRQKQQEAEELEADIREEKASWKTQIQYDKTNVLADFEQLRDILDWEESNELQNLEKEEEDILKSLTNSETEMVQQTQSLRELISDLEHRLQGSVMELLQGVDGVIKRTENVTLKKPETFPKNQRRVFRAPDLKGMLEVFRELTDVRRYWVDVTVAPNNISCAVISEDKRQVSSPKPQIIYQAPGTLFTFPTFTNFNYCTGILGSQSITSGKHYWEVDVSKKTAWILGVCAGFQPDAMCNIEKNENYQPKYGYWVIGLEEGVKCSAFQDSSFHTPSVPFIVPLSVIICPDRVGVFLDYEACTVSFFNITNHGFLIYKFSHCSFSQPVFPYLNPRKCGVPMTLCSPSS [human TRIM5α, 330-340 = QAPGTLFTFPTFT]",41.4 ± 16
6,"MASGILVNVKEEVTCPICLELLTQPLSLDCGHSFCQACLTANHKKSMLDKGESSCPVCRISYQPENIRPNRHVANIVEKLREVKLSPEGQKVDHCARHGEKLLLFCQEDGKVICWLCERSQEHRGHHTFLTEEVAREYQVKLQAALEMLRQKQQEAEELEADIREEKASWKTQIQYDKTNVLADFEQLRDILDWEESNELQNLEKEEEDILKSLTNSETEMVQQTQSLRELISDLEHRLQGSVMELLQGVDGVIKRTENVTLKKPETFPKNQRRVFRAPDLKGMLEVFRELTDVRRYWVDVTVAPNNISCAVISEDKRQVSSPKPQIIYGAPGTLFQTFTNFNYCTGILGSQSITSGKHYWEVDVSKKTAWILGVCAGFQPDAMCNIEKNENYQPKYGYWVIGLEEGVKCSAFQDSSFHTPSVPFIVPLSVIICPDRVGVFLDYEACTVSFFNITNHGFLIYKFSHCSFSQPVFPYLNPRKCGVPMTLCSPSS [human TRIM5α, 330-340 = GAPGTLFQTFT]",0.00384 ± 0.0024
7,"MASGILVNVKEEVTCPICLELLTQPLSLDCGHSFCQACLTANHKKSMLDKGESSCPVCRISYQPENIRPNRHVANIVEKLREVKLSPEGQKVDHCARHGEKLLLFCQEDGKVICWLCERSQEHRGHHTFLTEEVAREYQVKLQAALEMLRQKQQEAEELEADIREEKASWKTQIQYDKTNVLADFEQLRDILDWEESNELQNLEKEEEDILKSLTNSETEMVQQTQSLRELISDLEHRLQGSVMELLQGVDGVIKRTENVTLKKPETFPKNQRRVFRAPDLKGMLEVFRELTDVRRYWVDVTVAPNNISCAVISEDKRQVSSPKPQIIYGAPGTRFPTLTNFNYCTGILGSQSITSGKHYWEVDVSKKTAWILGVCAGFQPDAMCNIEKNENYQPKYGYWVIGLEEGVKCSAFQDSSFHTPSVPFIVPLSVIICPDRVGVFLDYEACTVSFFNITNHGFLIYKFSHCSFSQPVFPYLNPRKCGVPMTLCSPSS [human TRIM5α, 330-340 = GAPGTRFPTLT]",1.11 ± 1.6
8,"MASGILVNVKEEVTCPICLELLTQPLSLDCGHSFCQACLTANHKKSMLDKGESSCPVCRISYQPENIRPNRHVANIVEKLREVKLSPEGQKVDHCARHGEKLLLFCQEDGKVICWLCERSQEHRGHHTFLTEEVAREYQVKLQAALEMLRQKQQEAEELEADIREEKASWKTQIQYDKTNVLADFEQLRDILDWEESNELQNLEKEEEDILKSLTNSETEMVQQTQSLRELISDLEHRLQGSVMELLQGVDGVIKRTENVTLKKPETFPKNQRRVFRAPDLKGMLEVFRELTDVRRYWVDVTVAPNNISCAVISEDKRQVSSPKPQIIYQAPGTRYTFQSFVNFNYCTGILGSQSITSGKHYWEVDVSKKTAWILGVCAGFQPDAMCNIEKNENYQPKYGYWVIGLEEGVKCSAFQDSSFHTPSVPFIVPLSVIICPDRVGVFLDYEACTVSFFNITNHGFLIYKFSHCSFSQPVFPYLNPRKCGVPMTLCSPSS [human TRIM5α, 330-340 = QAPGTRYTFQSFV]",0.124 ± 0.033

# Same assay, conditions: library: insertions and deletions
row,Sequence,enrichment
1,"MASGILVNVKEEVTCPICLELLTQPLSLDCGHSFCQACLTANHKKSMLDKGESSCPVCRISYQPENIRPNRHVANIVEKLREVKLSPEGQKVDHCARHGEKLLLFCQEDGKVICWLCERSQEHRGHHTFLTEEVAREYQVKLQAALEMLRQKQQEAEELEADIREEKASWKTQIQYDKTNVLADFEQLRDILDWEESNELQNLEKEEEDILKSLTNSETEMVQQTQSLRELISDLEHRLQGSVMELLQGVDGVIKRTENVTLKKPETFPKNQRRVFRAPDLKGMLEVFRELTDVRRYWVDVTVAPNNISCAVISEDKRQVSSPKPQIIYGARGTRTRYQTFVNFNYCTGILGSQSITSGKHYWEVDVSKKTAWILGVCAGFQPDAMCNIEKNENYQPKYGYWVIGLEEGVKCSAFQDSSFHTPSVPFIVPLSVIICPDRVGVFLDYEACTVSFFNITNHGFLIYKFSHCSFSQPVFPYLNPRKCGVPMTLCSPSS [human TRIM5α, 2-codon duplication at 334]",1.24 ± 0.96
2,"MASGILVNVKEEVTCPICLELLTQPLSLDCGHSFCQACLTANHKKSMLDKGESSCPVCRISYQPENIRPNRHVANIVEKLREVKLSPEGQKVDHCARHGEKLLLFCQEDGKVICWLCERSQEHRGHHTFLTEEVAREYQVKLQAALEMLRQKQQEAEELEADIREEKASWKTQIQYDKTNVLADFEQLRDILDWEESNELQNLEKEEEDILKSLTNSETEMVQQTQSLRELISDLEHRLQGSVMELLQGVDGVIKRTENVTLKKPETFPKNQRRVFRAPDLKGMLEVFRELTDVRRYWVDVTVAPNNISCAVISEDKRQVSSPKPQIIYGARGTRYYCTGILGSQSITSGKHYWEVDVSKKTAWILGVCAGFQPDAMCNIEKNENYQPKYGYWVIGLEEGVKCSAFQDSSFHTPSVPFIVPLSVIICPDRVGVFLDYEACTVSFFNITNHGFLIYKFSHCSFSQPVFPYLNPRKCGVPMTLCSPSS [human TRIM5α, 7-codon deletion at 337]",1.35 ± 0.56
3,"MASGILVNVKEEVTCPICLELLTQPLSLDCGHSFCQACLTANHKKSMLDKGESSCPVCRISYQPENIRPNRHVANIVEKLREVKLSPEGQKVDHCARHGEKLLLFCQEDGKVICWLCERSQEHRGHHTFLTEEVAREYQVKLQAALEMLRQKQQEAEELEADIREEKASWKTQIQYDKTNVLADFEQLRDILDWEESNELQNLEKEEEDILKSLTNSETEMVQQTQSLRELISDLEHRLQGSVMELLQGVDGVIKRTENVTLKKPETFPKNQRRVFRAPDLKGMLEVFRELTDVRRYWVDVTVAPNNISCAVISEDKRQVSSPKPQIIYGARGTRYQTFYQTFVNFNYCTGILGSQSITSGKHYWEVDVSKKTAWILGVCAGFQPDAMCNIEKNENYQPKYGYWVIGLEEGVKCSAFQDSSFHTPSVPFIVPLSVIICPDRVGVFLDYEACTVSFFNITNHGFLIYKFSHCSFSQPVFPYLNPRKCGVPMTLCSPSS [human TRIM5α, 4-codon duplication at 336]",0.429 ± 0.24
4,"MASGILVNVKEEVTCPICLELLTQPLSLDCGHSFCQACLTANHKKSMLDKGESSCPVCRISYQPENIRPNRHVANIVEKLREVKLSPEGQKVDHCARHGEKLLLFCQEDGKVICWLCERSQEHRGHHTFLTEEVAREYQVKLQAALEMLRQKQQEAEELEADIREEKASWKTQIQYDKTNVLADFEQLRDILDWEESNELQNLEKEEEDILKSLTNSETEMVQQTQSLRELISDLEHRLQGSVMELLQGVDGVIKRTENVTLKKPETFPKNQRRVFRAPDLKGMLEVFRELTDVRRYWVDVTVAPNNISCAVISEDKRQVSSPKPQIIYGARGTRYQTFVNFNSQSITSGKHYWEVDVSKKTAWILGVCAGFQPDAMCNIEKNENYQPKYGYWVIGLEEGVKCSAFQDSSFHTPSVPFIVPLSVIICPDRVGVFLDYEACTVSFFNITNHGFLIYKFSHCSFSQPVFPYLNPRKCGVPMTLCSPSS [human TRIM5α, 7-codon deletion at 344]",1.9 ± 0.94

# Source: the supplement of paper PMC12230231
